Data published in PubChem BioAssay AID485344 (National Center for Advancing Translational Sciences (NCATS), 2010).
Among all 340,000 compounds or so, about 6,900 (2%) were called active. Rule as the data show it: active = inhibition above about 30%; inactive = below that, where a call was filed. Only a part is listed here, and it is no random draw. Entries without a call were filed so in the source.

What follows are molecules tested against D(2) dopamine receptor (Homo sapiens) (UniProt P14416) (assay: HTS Assay for Allosteric Antagonists of the Human D2 Dopamine Receptor: Primary Screen for Antagonists). Settings: HEK293 TREx D2 cells, calcium flux, dopamine EC80; at 10 µM; stronger effect = higher value.
Sequence of UniProt P14416 (P14416 whole entry, looked up): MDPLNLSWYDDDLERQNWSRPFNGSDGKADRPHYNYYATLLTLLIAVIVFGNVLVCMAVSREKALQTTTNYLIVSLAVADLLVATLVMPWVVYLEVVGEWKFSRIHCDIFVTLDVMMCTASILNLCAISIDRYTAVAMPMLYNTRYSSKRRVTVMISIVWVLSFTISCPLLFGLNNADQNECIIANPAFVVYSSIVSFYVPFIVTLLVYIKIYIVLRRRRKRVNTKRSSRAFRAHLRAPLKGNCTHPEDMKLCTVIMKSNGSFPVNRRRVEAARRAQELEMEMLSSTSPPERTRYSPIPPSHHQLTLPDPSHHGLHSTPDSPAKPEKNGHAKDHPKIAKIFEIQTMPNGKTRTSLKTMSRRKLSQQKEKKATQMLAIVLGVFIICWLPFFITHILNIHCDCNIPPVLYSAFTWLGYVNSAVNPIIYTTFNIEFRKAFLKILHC
Method in brief: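 Antagonism is scored as inhibition of an EC80 dopamine-evoked calcium signal in a force-coupled, tetracycline-inducible HEK293 T-REx D2 line, with compound present 180 s before agonist.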
Also: 0% is about no effect.

| SMILES | inhibition |
| --- | --- |
| COc1ccc(-c2nnc(SCC(=O)c3ccc(NC(C)=O)cc3)o2)cc1OC | -3.32% |
| COc1ccc(-c2nc3ccccc3o2)cc1NC(=O)c1ccc(OCC(C)C)cc1 | 2.92% |
| CSc1ccc(C2c3[nH]c4ccccc4c3CCN2C(=O)CCC2CCCC2)cc1 (stereo unspecified) | -3.24% |
| COC(=O)c1c(-c2cccs2)csc1NC(=O)c1ccc(C(C)(C)C)cc1 | 2.36% |
| COc1ccc(Cl)cc1NC(=O)Cn1nnc(C(=O)NCc2cccs2)c1N | 0.199% |
| COc1ccc2c(CNCc3ccco3)c(C(=O)O)n(Cc3ccccc3)c2c1 | -12.5% |
| COc1ccccc1NC(=O)COC(=O)CC(C)(C)CC1=NS(=O)(=O)c2ccccc2N1 | 23.7% |
| COc1cccc(N2CC(NC(=O)C3CCCC3)CC2=O)c1 (stereo unspecified) | 20% |
| O=C(O)c1cccnc1Sc1ncnc2sc3c(c12)CCC3 | active: 34.2% |
| COc1ccc(N2CCN(C(=O)c3c4c(nc5ccccc35)C(=O)N(C3CCCCC3)C4)CC2)cc1 | 6.13% |
| COc1cc(S(=O)(=O)n2ccnc2C(C)C)ccc1Br | 0.267% |
| Cc1ccc(Cn2ccnc2SCC(=O)NC2CCCC2)cc1 | -6.19% |
| CCOc1ccc(CCNC(=O)CN2C(=O)COc3ccc(S(=O)(=O)N(CC)CC)cc32)cc1 | -6.88% |
| COc1ccccc1CNC(=O)C(=O)NCC(c1cccnc1)N1CCN(c2ccc(F)cc2)CC1 (stereo unspecified) | 0.0497% |
| Cc1ccc(-c2nc(S(=O)(=O)c3ccc(C)cc3)c(N3CCCCC3)o2)cc1 | -1.04% |
| Cc1cccc(Cc2c(C)nc3nc(SCc4cccc(F)c4)nn3c2C)c1 | 6.91% |
| Cn1c(C(=O)NCCCN2CCc3ccccc3C2)cc2c(=O)n(C)c3ccccc3c21 | active: 80.5% |
| CCc1ccc(-n2c(N3CCN(c4cccc(C)c4C)CC3)nc3ccccc3c2=O)cc1 | 8.13% |
| Cc1ccc(Nc2nc(N)nc(N)c2S(=O)(=O)c2ccccc2)cc1 | -2.32% |
| COC(=O)c1sccc1S(=O)(=O)N(CC(=O)NCc1ccccc1)c1ccc(C)cc1 | 2.95% |
| COc1ccccc1C(=O)Nc1nc(-c2ccc(Br)cc2)ns1 | 5.88% |
| O=C(N1CCN(c2ccccc2)CC1)C12CC3CC(CC(C3)C1)C2 | active: 72% |
| O=C(CC1S/C(=N/N=C/c2cccs2)NC1=O)Nc1ccc(Cl)cc1 (stereo unspecified) | active: 43.8% |
| COc1ccccc1N1CCN(C(=O)C2CCCN(S(=O)(=O)c3ccc4c(c3)oc(=O)n4C)C2)CC1 (stereo unspecified) | -3.12% |

| SMILES | inhibition |
| --- | --- |
| Cc1ccc(C)c(NC(=O)Cn2cnc3nc4c(cc3c2=O)CCCC4)c1 | 2.34% |
| CCOC(=O)c1cccc(NC(=O)c2ccc3snnc3c2)c1 | 8.26% |
| COc1ccc(NC(C)=O)cc1NC(=O)CN1CCN(S(=O)(=O)c2ccc(C(C)C)cc2)CC1 | active: 38.2% |
| CCN1C(=O)c2cccc3c(S(=O)(=O)N4CCC(C)CC4)ccc1c23 | active: 37.5% |
| COC(=O)C1CCN(C(c2ccccc2Cl)c2sc3nc(-c4ccco4)nn3c2O)CC1 (stereo unspecified) | 8.2% |
| CCCCOc1ccc(C(=O)Nc2onc3c2CCCC3)cc1 | 7.12% |
| O=C(C[n+]1cccc(CNC(=O)c2ccc(OC(F)F)cc2)c1)Nc1cc(C(F)(F)F)ccc1Cl | active: 63% |
| Cc1cc(C)cc(NC(=O)Nc2cccs2)c1 | -2.68% |
| CCOC(=O)CN1C(C(=O)c2ccccc2)=C(OC(=O)c2ccccc2)c2ccccc2S1(=O)=O | 19.3% |
| Cc1ccc(NC(=O)C2CCCN(S(=O)(=O)c3ccc(F)cc3)C2)cc1 (stereo unspecified) | -8.68% |
| Cc1ccc(NC(=O)CSc2nc3ccc(NC(=O)c4ccco4)cc3s2)c(C)c1 | 5.25% |
| CSc1cccc(NC(=O)C(c2ccccc2)N2Cc3ccccc3C2=O)c1 (stereo unspecified) | -4.2% |
| COC(=O)c1cccc(CN2C(=O)SC(Nc3ccc(Br)cc3)C2=O)c1 (stereo unspecified) | 7.16% |
| CNC(=O)c1c(NC(=O)c2ccc(S(=O)(=O)N3CCCC(C)C3)cc2)sc2c1CCC2 (stereo unspecified) | 9.35% |
| COc1ccc(C(CNC(=O)c2cc3ccccc3o2)N2CCCCC2)cc1 (stereo unspecified) | active: 66.6% |
| COc1ccc(-c2cc(C(F)(F)F)nc(NCCc3ccccc3)n2)cc1 | -3.59% |
| COC(=O)c1c(SCC(=O)Nc2cc(F)ccc2F)[nH]c2ccc(C)cc2c1=O | -5.37% |
| Cc1cccc(NC(=S)NC2CC3CCCC(C2)N3Cc2cccs2)c1 (stereo unspecified) | active: 76.8% |
| Cc1c(-c2ccc(Cl)cc2)c(=O)oc2c(CN3CCOCC3)c(O)ccc12 | -10% |
| O=C(NCCc1ccccc1)c1cc2sccc2n1Cc1ccc(F)cc1 | -4.12% |
| Cc1ccc(C)c(OCCCN2CCc3ccccc3C2)c1 | active: 70.4% |
| CCOc1ccc(NC(=O)CN2CCN(CC(=O)Nc3ccc(OC)cc3)CC2)cc1 | 8.67% |
| COc1ccc(N2CCN(S(=O)(=O)CCNC(=O)c3ccc(OC(C)C)cc3)CC2)cc1 | 12.4% |
| COc1ccccc1/C=C/c1nc(C#N)c(N2CCN(c3ccccc3)CC2)o1 | 3.38% |

| SMILES | inhibition |
| --- | --- |
| CN(C(=O)CSc1nc2ccc(NC(=O)COc3ccccc3Cl)cc2s1)c1ccccc1 | -7.44% |
| Cc1ccc(Nc2c(-c3ccccc3O)nc3cc(C)ccn23)cc1 | 11% |
| CC(C)(C)c1ccc(OCC(=O)NC(Cc2c[nH]c3ccccc23)C(=O)O)cc1 (stereo unspecified) | 5.1% |
| COc1cccc(CNC(=O)CCCn2c(=O)c3cccn3c3cccnc32)c1OC | -6.85% |
| CC(=O)Nc1ccc(NS(=O)(=O)c2cc3c4c(c2)CC(=O)N4CCC3)cc1 | -21.3% |
| CCCCn1nc(NC(=O)c2cccc(Cl)c2)c2cc3ccc(C)cc3nc21 | -12.8% |
| COc1cc(C(=O)NCCS(=O)(=O)N2CCN(c3ccccc3)CC2)cc(OC)c1OC | 18.8% |
| COc1ccc(C2N(S(=O)(=O)c3ccc(C)cc3)CCN2S(=O)(=O)c2ccc(C)cc2)cc1 | active: 36.4% |
| Cn1cc(S(=O)(=O)c2ccc(Cl)cc2)c(=O)c2cc(F)c(N3CCOCC3)cc21 | -2.96% |
| COc1ccc(-c2cc3nc(C)c(CCC(=O)N4CCN(c5cc(C)ccc5C)CC4)c(C)n3n2)c(OC)c1 | -8.41% |
| COc1ccc(NC(=O)CSc2nnc3c(C)cc4ccccc4n23)cc1 | -4.81% |
| COc1cc(-c2nnn(CC(=O)NCc3ccccc3)n2)cc(OC)c1OC | -1.69% |
| CN(C)[C@@H]1CCC[C@H]1OC(=O)C(c1ccccc1)c1ccccc1 | active: 46.9% |
| Cc1cnc2c(c1SCC(=O)NCc1ccc(F)cc1)c(=O)n(C)c(=O)n2C | 9.98% |
| O=C(c1ccc(F)cc1)N1CCC(C(=O)N2CCN(Cc3ccc4c(c3)OCO4)CC2)CC1 | active: 30.5% |
| COc1ccc(CN2CCN(c3ccccc3OC)CC2)c(OC)c1 | active: 91.2% |
| NNC(=O)CN1C(CN2CCOCC2)=Nc2ccc(Br)cc2C1c1ccccc1 (stereo unspecified) | active: 83% |
| CCOc1ccc(-c2cc(C(=O)N3CCN(c4ccc(C)cc4)C(C)C3)c3ccccc3n2)cc1 (stereo unspecified) | -23% |
| CCC(=O)N1CCc2cc(S(=O)(=O)NCCC(=O)Nc3ccc(OC)c(OC)c3)ccc21 | -5.51% |
| CCOc1ccc(NC(=O)C(=O)NCCc2csc(-c3ccc(C)cc3)n2)cc1 | -17.8% |
| Cc1noc2ncnc(NCc3ccccc3Cl)c12 | -2.7% |
| COc1ccc(OC)c(NC(=O)c2sc3nc4c(cc3c2N)CCCCCC4)c1 | -27.7% |
| Cc1ccc(C)c(N2CCN(C(c3ccc(F)cc3)c3nnc(-c4ccccc4)o3)CC2)c1 (stereo unspecified) | -5.9% |
| Cc1ccccc1CSc1cn(CC(=O)N2CCCC2)c2ccccc12 | -1.07% |

| SMILES | inhibition |
| --- | --- |
| CCN(Cc1ccccc1)C(=O)Cn1c(=O)oc2cc(S(=O)(=O)N3CCCCCC3)ccc21 | 5.47% |
| CCOC(=O)c1cnc2ccccc2c1Nc1ccc(N2CCOCC2)cc1 | -8.37% |
| COc1ccccc1NC(=O)c1nc(SCc2ccc(F)cc2)ncc1Cl | -6.59% |
| Cc1cccc(Cn2c(=O)n(-c3ccc(Cl)c(Cl)c3)c(=O)c3c(C)c(C)sc32)c1 | 18.7% |
| COc1cc(NC(=O)c2cc(-c3cccc(Cl)c3)on2)c(OC)cc1Cl | -23% |
| CCOCCc1nnc(NC(=O)C(=O)c2cc(C)n(-c3cccc(Cl)c3)c2C)s1 | 25.8% |
| Cc1ccc2nc(NC(=O)CSc3nccn3Cc3ccccc3)sc2c1 | -17.6% |
| Cc1ccc(N(CC(=O)N2CCN(c3cc(Cl)ccc3C)CC2)S(=O)(=O)c2c(C)noc2C)cc1 | 5.67% |
| O=C(COC(=O)C1CCN(c2ccc(C(F)(F)F)cn2)CC1)Nc1ncc(Cl)cc1Cl | active: 34.7% |
| Clc1ccc(-c2nc3ccccn3c2Nc2ccc3c(c2)OCCO3)s1 | -7.87% |
| Cc1ccc(-n2c(=O)c3cccnc3n2CC(=O)NCc2ccc(F)cc2)cc1C | 0.809% |
| Cc1ccc(CNC(=O)CN2CCCN(Cc3ccc(F)cc3)S2(=O)=O)cc1 | 4.01% |
| CCN(CC)S(=O)(=O)c1ccc2c(c1)N(CC(=O)Nc1c(C)cc(C)cc1C)C(=O)C1CCCN21 (stereo unspecified) | 5.18% |
| COc1ccc(NC(=O)CSc2nccn2Cc2ccco2)cc1OC | -0.315% |
| O=C(COc1ccccc1F)Nc1ccc(Cl)c(-c2nc3ccccc3[nH]2)c1 | 14.7% |
| Cc1cc(C)c(/C=C/c2onc(C)c2S(=O)(=O)N2CCC(C(=O)Nc3ccc(Cl)c(C(F)(F)F)c3)CC2)c(C)c1 | -13.7% |
| CC1=C(c2ccc(C)c(C)c2)S(=O)(=O)N=C1N1CCC(C(=O)NCc2ccc(Cl)cc2)CC1 | 12.5% |
| O=C(NCCC1=CCCCC1)c1ccc2c(c1)N(Cc1ccc(Cl)cc1)C(=O)c1ccccc1S2=O (stereo unspecified) | -5.55% |
| Cn1nc(-c2ccc(Cl)cc2)c2cc(C(=O)N3CCOCC3)sc21 | active: 30.9% |
| O=c1c2cc(N3CCOCC3)ccc2[nH]c(=S)n1CCCN1CCCCCC1 | active: 38.7% |
| CCOC(=O)c1cccc(NC(=O)c2cnc(N3CCCCC3)c3ccccc23)c1 | -0.495% |
| CCOc1ccc(NC(=O)Cn2cc(C(=O)c3ccc(CC)cc3)c(=O)c3ccc(C)nc32)cc1 | -2.98% |
| CCc1cccc(NC(=O)CC2Oc3ccc(C)cc3NC2=O)c1 (stereo unspecified) | 15.2% |
| Cc1ccc(NC(=O)CC2Sc3ccccc3NC2=O)c(Br)c1 (stereo unspecified) | 10.5% |
